Laboratory results published in PubChem BioAssay AID1508623 (National Center for Advancing Translational Sciences (NCATS), 2021).
“And” between values parts separate entries of the source, which are not always exact repeats. Identical values can stand only once. About 450 (0.94%) of roughly 48,000 compounds were called active. Inconclusive results, whose numbers are uncertain, are shown with a selection of clear calls. Calls come from the whole dose curve; as a rule, active = well fitted inhibition curve with a large enough effect; inconclusive = small, poorly fitted or top-dose-only effect; inactive = no such curve, though single readings can be large or run the other way. Potencies beside an inconclusive call are fits to weak or partial responses and may not hold up.

Assay: Primary qHTS for Identification of Small Molecule Inhibitors of Huntingtin Promoter Activity; note: nearly all actives have a fitted effect of over 50% in size
Conditions: HEK293 HTT promoter firefly luciferase reporter (activity 0% = vehicle and -100% = no light), 24 h; series mostly up to 57.5 µM
Outline: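 Firefly luciferase readout (Dual-Glo, 10 min RT) after 24 h, 37 °C compound exposure (final up to 57.5 uM) of HEK293 reporter cells cultured 24 h beforehand; PTC124 at 50 uM final as control inhibitor; activity scaled vehicle 0%, zero RLU -100%.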
Potency is the fitted concentration of half-maximal effect; tags give direction and shape of the fitted curve.

Potency, inactive:
Cc1ccc2c(c1)c1c(c(=O)n(Cc3ccccc3)c(=O)n1CC(=O)NCc1ccccc1Cl)n2C
CN(C(=O)CN1C(=O)CCSc2ccc(S(=O)(=O)N3CCCC3)cc21)c1ccccc1

Potency, inconclusive:
COc1ccc(-c2noc(CSc3nnc(-c4ccncc4)n3-c3ccc(C)cc3)n2)cc1 35.5 µM [inhibitor, single point]
COc1ccc(C(C)n2c(C)c3c(C)nnc(C)c3c2C)cc1 (stereo unspecified) 28.2 µM [inhibitor, partial curve, poor fit]
Cc1cccc(C)c1Nc1nc2ccccc2nc1NS(=O)(=O)c1ccccc1 39.8 µM [inhibitor, single point]
Cc1nc2ccc(S(=O)(=O)NC(CC(C)C)C(=O)N3CCN(c4ccc(F)cc4)CC3)cc2s1 (stereo unspecified) 28.2 µM [inhibitor, partial curve]
CN(C)c1ccc(CNS(=O)(=O)c2ccc3[nH]c4c(c3c2)CCCCC4)cc1 17.8 µM [inhibitor, partial curve]
Clc1ccccc1C(c1ccccc1)(c1ccccc1)n1ccnc1 20 µM [inhibitor, single point] and 19.3 µM [inhibitor, partial curve, poor fit]
NC(=O)NO 15.3 µM [inhibitor, partial curve]
Fc1ccc(Cc2cn3cc(-c4ccccc4)nc3s2)cc1 39.8 µM [inhibitor, single point]
CCOC(=O)c1cccc(NC(=O)CCC(=O)N2CC(C)Oc3ccc(C)cc32)c1 (stereo unspecified) 15.8 µM [inhibitor, partial curve, poor fit]
COc1ccc(CNC(=O)c2ccc3c(c2)CCN3S(=O)(=O)c2ccc(C)cc2)cc1 14.1 µM [inhibitor, partial curve]
Cc1ccc(NC(=O)C2CCCN2S(=O)(=O)c2cccc3nsnc23)cc1Cl (stereo unspecified) 28.2 µM [inhibitor, partial curve, poor fit]
CCn1c(-c2nonc2N)nc2cnc(Oc3cccc(NC(=O)c4ccc(OCCN5CCOCC5)cc4)c3)cc21 8.63 µM [inhibitor, partial curve]
CCN(c1ccccc1)S(=O)(=O)c1ccc(-c2cc(C)no2)s1 15.8 µM [inhibitor, partial curve]
COc1ccc(-n2cc(-c3ccccc3)c3c(NC4CCCC4)ncnc32)cc1 28.2 µM [inhibitor, partial curve, poor fit]
